Measured values published in the RNAGym collection of RNA variant scans (doi:10.1073/pnas.2313332121).
This sample is rich in variants without activity.

B1: TPR 5TU (parent)
chain: GGAUCUUCUCGAUCUAACAAAAAAGACAAAUCUGCCACAAAGCUUGAGAGCAUCUUCGGAUGCAGAGGCGGCAGCCUUCGGUGGCGCGAUAGCGCCAACGUUCUCAACUAUGACACGCAAAACGCGUGCUCCGUUGAAUGGAGUUUAUCAUG

Variants of: B1
Assay: polymerase ribozyme fitness, log enrichment relative to wild type (log ratio); higher = more active; in vitro selection for triplet polymerase activity
Summary of the method: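 Fitness is a logarithmic measure of how a genotype enriched relative to the wild type, with replicate averages weighted by inverse variance. The logarithm uses base 2, and enrichment came from Illumina sequencing of input and output libraries. Those libraries were PCR-built, transcribed mutants of each subunit of a heterodimeric triplet polymerase ribozyme, passed through one triplicate in vitro selection round that included frozen incubation at −7 °C, gel excision of extended constructs and streptavidin-bead capture. Genotypes were kept only if they had ≥10 input reads and ≥1 read per output.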

First: U31G G59U C69A U134G G136U
Second: U33C G34U G50U G58C C103G A120G U148A
The “polymerase ribozyme fitness (log ratio)” value of the first is higher: -3.84 for the first, at most -4.2 for the second.

U33C C54U C96U A107C and C32U A66C C85U C93U cannot be ordered by “polymerase ribozyme fitness (log ratio)” value: at most -4.2 for the first, at most -4.2 for the second.

First: U31C G50A A73U C93U C125U A142G
Second: U31C A40C G94A
The “polymerase ribozyme fitness (log ratio)” value of the first is lower: at most -4.2 for the first, 1.25 for the second.

U31G C43A G68C G81A C87G and A30U A47G U55A U82G U144C cannot be ordered by “polymerase ribozyme fitness (log ratio)” value: at most -4.2 for the first, at most -4.2 for the second.

C32G U55G C96A A98U C103G G141A U148C and U33G C103G G112U G133U U151A cannot be ordered by “polymerase ribozyme fitness (log ratio)” value: at most -4.2 for the first, at most -4.2 for the second.

U31G A40U A91U and C32U C35A C36G G83U C93U U139G G143U cannot be ordered by “polymerase ribozyme fitness (log ratio)” value: at most -4.2 for the first, at most -4.2 for the second.

C32U A40G G81C C85U G88U C93A A97C A106U U130A G143U and A30G A150G cannot be ordered by “polymerase ribozyme fitness (log ratio)” value: at most -4.2 for the first, at most -4.2 for the second.

Going from C32G U130A to U33A A37G C105U A106G, the “polymerase ribozyme fitness (log ratio)” value rises from at most -4.2 to -4.07.

U31A U44A G68A G81A U104G C125A and C32A C114A A137G cannot be ordered by “polymerase ribozyme fitness (log ratio)” value: at most -4.2 for the first, at most -4.2 for the second.

C32G G80C C95U A113G G128A and C32A U55C G65A U77G C87U C103A C125A G141C cannot be ordered by “polymerase ribozyme fitness (log ratio)” value: at most -4.2 for the first, at most -4.2 for the second.

C32U G74A G88C G140A G141U and C32U G88A U145G cannot be ordered by “polymerase ribozyme fitness (log ratio)” value: at most -4.2 for the first, at most -4.2 for the second.

C32G A52G A89U G92C C95U and C32U C35A G88C A91U G143U cannot be ordered by “polymerase ribozyme fitness (log ratio)” value: at most -4.2 for the first, at most -4.2 for the second.

U31C C72U G86U C129G and C32G A41C C57U U146C C149A cannot be ordered by “polymerase ribozyme fitness (log ratio)” value: at most -4.2 for the first, at most -4.2 for the second.

U31A C35U A66C C85G and U31G C63A U77C C131G C149U U151G cannot be ordered by “polymerase ribozyme fitness (log ratio)” value: at most -4.2 for the first, at most -4.2 for the second.

Compared with A30G A64C A106U, C32U C125U is higher in “polymerase ribozyme fitness (log ratio)” value: at most -4.2 for the first, -2.22 for the second.

First: U33G C116U
Second: U33A C43U U56A G58C A119G U127C
The “polymerase ribozyme fitness (log ratio)” value of the first is higher: -2.7 for the first, at most -4.2 for the second.

U33A A47G U53G A89G A107G U134G and A30U C57G G62A G70C C96U C105A A120U C125A cannot be ordered by “polymerase ribozyme fitness (log ratio)” value: at most -4.2 for the first, at most -4.2 for the second.

Going from A30U G70U A110U to U31G G58C G140C, the “polymerase ribozyme fitness (log ratio)” value rises from at most -4.2 to -4.

C32G A89U C95U G152A and C32G G48A A52G A121U G133C cannot be ordered by “polymerase ribozyme fitness (log ratio)” value: at most -4.2 for the first, at most -4.2 for the second.

C32U U33G U61A G62C G83C C95A C96G C105A A107C U109G G124A G140C and U33G C38G G92A A150C cannot be ordered by “polymerase ribozyme fitness (log ratio)” value: at most -4.2 for the first, at most -4.2 for the second.

U31G U55C C95U C108A C123A G124U and C32U C87U G100U A115G cannot be ordered by “polymerase ribozyme fitness (log ratio)” value: at most -4.2 for the first, at most -4.2 for the second.

C32A C35U A60C G62A C114U and U31G C54G C108G cannot be ordered by “polymerase ribozyme fitness (log ratio)” value: at most -4.2 for the first, at most -4.2 for the second.

U33G G50C G86C U90A G100C G124U C132G U148A G152U and C32A G68A U77A C108A cannot be ordered by “polymerase ribozyme fitness (log ratio)” value: at most -4.2 for the first, at most -4.2 for the second.

Going from C32A U33G C54G U78A C87A C105G A115G to C32U C36A U55G C93G G133U G141U, the “polymerase ribozyme fitness (log ratio)” value rises from at most -4.2 to -4.01.

A30U C75G G80C A91C A107U G136U and C32A C85U A142U cannot be ordered by “polymerase ribozyme fitness (log ratio)” value: at most -4.2 for the first, at most -4.2 for the second.

U31C C43U G92C A137U G140U and U31A A60G C72U A89G U102C A122G cannot be ordered by “polymerase ribozyme fitness (log ratio)” value: at most -4.2 for the first, at most -4.2 for the second.

A30G G34A G50A C54A C85U and U33G G42C A47C A91G G140U U145C cannot be ordered by “polymerase ribozyme fitness (log ratio)” value: at most -4.2 for the first, at most -4.2 for the second.

C32G G42C U53A A66C U78C A91U C105U G112U C114G and U33C A97U U101G C114G cannot be ordered by “polymerase ribozyme fitness (log ratio)” value: at most -4.2 for the first, at most -4.2 for the second.

U31C C96G A137U and U33C A41U G42A G88A G92A cannot be ordered by “polymerase ribozyme fitness (log ratio)” value: at most -4.2 for the first, at most -4.2 for the second.

U31A U44A A52C G71U G83C G86A A97C U104A and U31A G71A G81A A122C cannot be ordered by “polymerase ribozyme fitness (log ratio)” value: at most -4.2 for the first, at most -4.2 for the second.

U31G U44G G50A G70A G86U C114A C131U A137C U144G and U33G C43A C76U G92U C103U U148A cannot be ordered by “polymerase ribozyme fitness (log ratio)” value: at most -4.2 for the first, at most -4.2 for the second.

Compared with C32G G94A, A30G G46A A107U is lower in “polymerase ribozyme fitness (log ratio)” value: -3.8 for the first, -4.03 for the second.

U31G G65C A73G C93G A119U and A30U C35A U61A U77C G128C U148G cannot be ordered by “polymerase ribozyme fitness (log ratio)” value: at most -4.2 for the first, at most -4.2 for the second.

First: U31G G62C G88C A119G
Second: C32U G59U G81A
The “polymerase ribozyme fitness (log ratio)” value of the first is lower: at most -4.2 for the first, -3.13 for the second.

A30U C69U G83A and A30U C38U A52C A66C C96U cannot be ordered by “polymerase ribozyme fitness (log ratio)” value: at most -4.2 for the first, at most -4.2 for the second.

Going from A30U U55A to C32U A49C U53A G58U A91G G117U A119C A138C G141C, the “polymerase ribozyme fitness (log ratio)” value falls from -2.96 to at most -4.2.

U33A U44A G46U G59A C93G C103U U104A U135A C149G and U31A A60C G62U C75U U78C G83A G143A cannot be ordered by “polymerase ribozyme fitness (log ratio)” value: at most -4.2 for the first, at most -4.2 for the second.

A30U A73G G81C G92U G141A U148A and U31C C35G C36U C51G G92C U109A U151A cannot be ordered by “polymerase ribozyme fitness (log ratio)” value: at most -4.2 for the first, at most -4.2 for the second.

First: C32U C118U G133C
Second: U33G C35A A66G C93U U104G C105U U134G
The “polymerase ribozyme fitness (log ratio)” value of the first is higher: -2.99 for the first, at most -4.2 for the second.

U33A U56A C79G C96G A137C and C32U A49G A52G A138G cannot be ordered by “polymerase ribozyme fitness (log ratio)” value: at most -4.2 for the first, at most -4.2 for the second.

U31C G86U U111G C116A and U31G C76G A91C C125G cannot be ordered by “polymerase ribozyme fitness (log ratio)” value: at most -4.2 for the first, at most -4.2 for the second.

C32G A41U A91U A107G C125G U135C and C32A U53A A66G U78G cannot be ordered by “polymerase ribozyme fitness (log ratio)” value: at most -4.2 for the first, at most -4.2 for the second.
